# Some of the results follow.
# B1: chr10:43184366:43184487:+|3pUTR|ENSG00000169826|unk|total|mutant (ssRNA)
# RNA: GGGAGUUCUACAGUCCGACGAUCCCGUUUAUUUGAGCCAGCUCUAUCAGGGUCUUCCCAUGGUGGUUCAGAACCGAUGAGCACCGCAUGGUUUUGUUUGUUUUUGCUUUCAAUUUUCUAAUUUGGCAUGGAUCCAUAUGUAUUCAACAGAGGAUUGAGCAUCA
# B2: chr4:185586528:185586629:-|3pUTR|ENSG00000154556|msi1|FALSE|unique (ssRNA)
# RNA: GGGAGUUCUACAGUCCGACGAUCAUCCAUAUGAUAUGUUGUACAUUUUAUGGAAAUGUAAUAGAAUCUCACACAUUAUUUUAUAGAAAUAGAGUACAGAAGCAUCACAAGUAUUAAAGUUGGUUUUAGCAAGGAUUAGGAUUACAACAGAGGAUUGAGCAUCA
# B3: chr11:125776112:125777381:-|three_prime_utr|ENSG00000196844|control|control|control (ssRNA)
# RNA: GGGAGUUCUACAGUCCGACGAUCCACUACGCUCUUUUUCUCUUCCCUGAACCUGAAUUUUGCUCUCCUCUUCUAUGCAUUGGUAGAGAGUGAGAAAGCCAGCUCAUAGUGAAAAGACAAGCAGGCAUAAGGAGACGCAGUGUGCAACAGAGGAUUGAGCAUCA
# B4: chr11:62152232:62152344:+|3pUTR|ENSG00000149503|unk|FALSE|unique (ssRNA)
# RNA: GGGAGUUCUACAGUCCGACGAUCUGCUCUGUAAAUAGUUGUUUUAAUUUAGCUGAAUGUUAGCAUUUUAGUCUUUGGCAUUUUAGCGUUUGGGAGGUAGAUUAAUAAAGUAUAUUCCUUCAAGCCUGCUGUUGAUACCAUGAACAACAGAGGAUUGAGCAUCA
# B5: chr4:17704999:17705206:-|CDS|ENSG00000047662|control|control|control (ssRNA)
# RNA: GGGAGUUCUACAGUCCGACGAUCAAUCAAACAUCAGACAGAAGAGGAGAAGAAACAUCUCAAAGACCAGCUAGUGAAGCGACUAGAAGACUUGGUAAAGAAGCACACCGUGGAAAUCAAAUCCGUUCGCUCGUCCGUGGAGGCCAACAGAGGAUUGAGCAUCA
# B6: ENSG00000120451:stop:overlap|stop_codon|ENSG00000120451|stop_codon|NA|stop_codon (ssRNA)
# RNA: GGGAGUUCUACAGUCCGACGAUCCUGCUACCACCUCUGCCUCAGAUACCCCAGGCAACUCUAAGAGGAUGGGUGUCUCCUCUUAGCUGGUUAUUCACGCCUUCUUCCCAGGUCAGGGAAGUAGAGUUACUCGGCCACCAGAGACAACAGAGGAUUGAGCAUCA
# B7: chr6:132680848:132683139:-|three_prime_utr|ENSG00000112299|control|control|control (ssRNA)
# RNA: GGGAGUUCUACAGUCCGACGAUCGAUAAUUUAAAAAAUGAUGGAUGAGAAAAGAAAGAUUGGUCCGGGUUAAUAUUAUCCUCUAGUAUAAGUGAAUUACUAGUUUCUCUUUAUUUAGACAAACACACACACACCAGAUAAUAUCAACAGAGGAUUGAGCAUCA
# B8: ENSG00000198589:be:win_8751|3pUTR|ENSG00000198589|bound_else_gene|NA|bound_elsewhere_windowed (ssRNA)
# RNA: GGGAGUUCUACAGUCCGACGAUCGCUGCUGGGUUCUGUAGUUUUAAAAAAUCUAUAUUUUUAGUCAUAAUGAGAAGUCUAUUUUCACCAAUUAUGGAAACAUACAGUGGAGCAAGUAAACCACUUAUUCCAGCUAUAAUAUUACAACAGAGGAUUGAGCAUCA
# B9: ENSG00000113300:stop:overlap|stop_codon|ENSG00000113300|stop_codon|NA|stop_codon (ssRNA)
# RNA: GGGAGUUCUACAGUCCGACGAUCUGGAGCUCUUACUGCCUUUCCUGCCCCAAGUCAACGGCAUCCACCUUCCUGGCAGGAGGUAGUCAAGCACCUUCAGAGGACAGCCUUGAUUCACUUGUAAACUUGUGAAAAUCUGAACAUCAACAGAGGAUUGAGCAUCA
# B10: chr7:157539055:157540713:-|three_prime_utr|ENSG00000155093|control|control|control (ssRNA)
# RNA: GGGAGUUCUACAGUCCGACGAUCACGGAUGUUGUCAGGAAUCAUGAUCUGACUUUAAUUGUGUGUCUUCUAUUAUAACUGCAUAGUAAUAGGGCCCUUAGCUCUCCCGUAGUCAGCGCAGUUUAGCAGUUAAAAGUGUAUUUUCAACAGAGGAUUGAGCAUCA
# B11: chr14:59746188:59746291:-|CDS|ENSG00000139970|unk|total|mutant (ssRNA)
# RNA: GGGAGUUCUACAGUCCGACGAUCCUGGGUACACCCGGCCCCUCCUUACCAGAUGUGCCUGGGACCGAGUCUCGUGGCUUAUUCCGUUCUGAUUCUGGAACCGAGAUGACUCCUGCAGAGUCCACGGAAGUGAACAAGAUCUUACAACAGAGGAUUGAGCAUCA
# B12: chr2:120222042:120222143:-|CDS|ENSG00000226479|msi1|total|mutant (ssRNA)
# RNA: GGGAGUUCUACAGUCCGACGAUCGAAAUUUUCCCAUUUUUAAGAGAAUAUGGGAACAUUUCAUAUGAUCUCCAUCACGAAGACCGUGAAGAUGCUGAAGAAACAUCAGUUCCAGAAGCUCCGAAAAUUGCUCCAAUAUUUGGACAACAGAGGAUUGAGCAUCA
# B13: chr14:53038166:53038268:-|3pUTR|ENSG00000100523|unk|FALSE|unique (ssRNA)
# RNA: GGGAGUUCUACAGUCCGACGAUCGAGCUUUUGGCAGAGUCUUCGGGGUUUUCUAGGUAUAAAAUCAUAUCAGCGAAGAGAGCUAGUUUGAUUUCUUUUCCCAGUUGGAUGCCUUUUAUUUAUUUCUCUUGCCUGAUUGCUCUACAACAGAGGAUUGAGCAUCA
# B14: ENSG00000107863:be:win_5651|CDS|ENSG00000107863|bound_else_gene|NA|bound_elsewhere_windowed (ssRNA)
# RNA: GGGAGUUCUACAGUCCGACGAUCCCACGACCGACACACCUUUGUCUCUUCAUUGCAACACAGGCAGUUCUUCCAGCACCUUGGCUUCAACAAACAGGCCCCUUCUUUCCAUACCACCACAGUCACCUGACCAAAUAAACGGAGCAACAGAGGAUUGAGCAUCA
# B15: chr5:160402147:160402258:-|3pUTR|ENSG00000164609|unk|total|mutant (ssRNA)
# RNA: GGGAGUUCUACAGUCCGACGAUCAUGGUUUACAUUACCGUUUGUUUUCAUUGUGAUUGCCCCUAUGUAACAAUCAUGAAUAUCCGAUUUUUUAAAUUGCCGAAUAUCCUAAUAUUUACCGCCAGCAGCUGUUACUUUGUUUGUCAACAGAGGAUUGAGCAUCA
# B16: ENSG00000105355:stop:overlap|stop_codon|ENSG00000105355|stop_codon|NA|stop_codon (ssRNA)
# RNA: GGGAGUUCUACAGUCCGACGAUCCGUGGCUCGUGGGACCCUUUGCCCCUGGAAUCACUGAGAAAGCCCCGGAGGAGAAGAAGUAGGGGGAGAGGAGAGGACUCAGCGGGCCCCGUCUCUAUAAUGCAGCUGUGCUCUGGAGUCCAACAGAGGAUUGAGCAUCA
# B17: chr11:95166718:95166819:-|3pUTR|ENSG00000149212|unk|total|mutant (ssRNA)
# RNA: GGGAGUUCUACAGUCCGACGAUCACAGUUUCCCCUUCCUCUUUCUCUUCACAUUUACUCUUUUCAACCCAAAAUAAGAGACACCGAAAGCAAACCACAGCCAGUUUGGCAUCUUCUCAGUGCUACCCGUACCGGCACAUACACCAACAGAGGAUUGAGCAUCA
# B18: ENSG00000143799:stop:overlap|stop_codon|ENSG00000143799|stop_codon|NA|stop_codon (ssRNA)
# RNA: GGGAGUUCUACAGUCCGACGAUCACCAGCAGAAAGUCAAGAAGACAGCGGAAGCUGGAGGAGUGACAGAAAAGAAGCUCUAUUAGCUGACCACGGUUGUUACAAACAGACAGAUGAGAUGGACCAAUCGUAGUCUCCCAAGGCCAACAGAGGAUUGAGCAUCA
# B19: chr2:43888187:43888297:-|3pUTR|ENSG00000138095|unk|FALSE|unique (ssRNA)
# RNA: GGGAGUUCUACAGUCCGACGAUCAAAAUGUUAUUCCUUUAUUUAAGAUUCACUUAUUAGUCUGCUGUUUCUCUGAAAAAUUUUAGAGCUAGGUAUAGUGACCGUGAACUUUCUAACGCAUAAUAUUCUGUGAUACAGCCAUUCCAACAGAGGAUUGAGCAUCA
# B20: chr8:23842320:23842421:-|3pUTR|ENSG00000159167|msi1|FALSE|unique (ssRNA)
# RNA: GGGAGUUCUACAGUCCGACGAUCUAUGUAUCUACAAUACAUAUAUCUACACAUACAGAAAGAAGCAGUUCUCACAAUGUUGCUAGUUUUUUGCUUCUCUUUCCCCCACCCUACUCCCUCCAAUUCCCCCUUAAACUUCCAAAGCAACAGAGGAUUGAGCAUCA
# B21: chr10:91630394:91630495:-|CDS|ENSG00000119938|unk|FALSE|unique (ssRNA)
# RNA: GGGAGUUCUACAGUCCGACGAUCCUUGGACCUUAAUGAUAUCUCCUCUGCCUUAAAACACCACGAGGAGAAAAACUUGAUUUUAGAUUUCCCUCAGCCUUCAACCGAUUACUUAAGUUUCCGGAGCCACUUUCAGAAGAACUUCAACAGAGGAUUGAGCAUCA
# B22: ENSG00000026025:stop:overlap|stop_codon|ENSG00000026025|stop_codon|NA|stop_codon (ssRNA)
# RNA: GGGAGUUCUACAGUCCGACGAUCUGGCCCUUGACAUUGAGAUUGCCACCUACAGGAAGCUGCUGGAAGGCGAGGAGAGCAGGUAGGGAACUCAGACUUGGAUGCGUGAACUAAUGGUGACCAUUUGUUAGGCCCUGUGCCACUCAACAGAGGAUUGAGCAUCA
# Molecular target: MSI1 full-length (mouse, UniProt Q61474 1-362)
# UniProt Q61474, sequence (Q61474 whole entry): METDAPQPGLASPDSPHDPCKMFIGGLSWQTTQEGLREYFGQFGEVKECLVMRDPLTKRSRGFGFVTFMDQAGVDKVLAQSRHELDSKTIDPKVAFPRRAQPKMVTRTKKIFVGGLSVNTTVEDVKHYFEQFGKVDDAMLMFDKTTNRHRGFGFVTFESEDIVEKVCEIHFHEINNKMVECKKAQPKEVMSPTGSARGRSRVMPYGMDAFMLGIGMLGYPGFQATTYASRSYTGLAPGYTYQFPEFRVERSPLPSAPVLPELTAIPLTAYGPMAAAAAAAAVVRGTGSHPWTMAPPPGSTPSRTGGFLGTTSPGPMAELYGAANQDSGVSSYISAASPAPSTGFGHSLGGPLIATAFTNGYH
# Assay: nsRBNS (natural sequence RNA bind-n-seq); RBNS binding buffer (assumed for nsRBNS): 25 mM Tris pH 7.5, 150 mM KCl, 3 mM MgCl2, 0.01% Triton X-100, 500 ug/ml BSA, 20 U/ml SUPERase-In, 4 C; UNK is unkempt and MSI1 is Musashi-1; names of the RNAs are library labels; protein concentration not given here; high values mean tight binding
row,Binder,binding signal [enrichment R]
1,B1,0.39
2,B2,34.5
3,B3,0.399
4,B4,70
5,B5,0.62
6,B6,0.534
7,B7,13.8
8,B8,4.06
9,B9,38.7
10,B10,7.04
11,B11,0.317
12,B12,0.106
13,B13,0.593
14,B14,0.459
15,B15,0.471
16,B16,0.721
17,B17,0.709
18,B18,0.331
19,B19,3.28
20,B20,0.666
21,B21,0.264
22,B22,0.608
